Measurements taken from the supplement of paper PMC4967469.
By IC50 is meant the dose at which the fit gives 50% viability; a fit beyond the top or the lowest dose is shown as a bound at that dose. AUC sums up the same curve from the lowest dose to the 256-fold higher top dose; the more sensitive the line, the further below 1. For part of these data: The top dose, if marked as inferred, comes from the curve model; the source does not state it.

Experiments:
Assay in all cases: Viability of human cancer cell lines after 72 h of drug (GDSC screen)
XMD15-27 = compound: C=CC(=O)Nc1ccc(C(=O)c2sc(Nc3ccc(N4CCN(C)CC4)cc3OC)nc2N)cc1 [XMD15-27]; conditions: top dose 10.24 µM; top dose inferred
Method: (§1)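 Human cancer cell lines in 384-well plates, medium with 10% serum, drug for 72 h over a 256-fold dose range (nine 2-fold or five 4-fold steps up to the top dose). Adherent lines were fixed and stained with the nucleic acid dye Syto60, suspension lines read with resazurin; signal relative to control wells, capped at 0 and 100%. One two-parameter sigmoid per drug and line, fitted in a mixed model over all curves with the slope shared within a line.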

SL 0101-1 = compound: CC(=O)O[C@@H]1[C@@H](OC(C)=O)[C@@H](O)[C@H](Oc2c(-c3ccc(O)cc3)oc3cc(O)cc(O)c3c2=O)O[C@H]1C [SL 0101-1]; conditions: top dose 10 µM; top dose inferred
Method: as §1

Temsirolimus = compound: CO[C@H]1C[C@@H]2CC[C@@H](C)[C@@](O)(O2)C(=O)C(=O)N2CCCC[C@H]2C(=O)O[C@H]([C@H](C)C[C@@H]2CC[C@@H](OC(=O)C(C)(CO)CO)[C@H](OC)C2)CC(=O)[C@H](C)/C=C(\C)[C@@H](O)[C@@H](OC)C(=O)[C@H](C)C[C@H](C)/C=C/C=C/C=C/1C [Temsirolimus]; conditions: top dose 0.2 µM
Method: as §1

Cell Line | AUC (XMD15-27) | IC50 (XMD15-27) | AUC (SL 0101-1) | IC50 (SL 0101-1) | AUC (Temsirolimus) | IC50 (Temsirolimus)
BL-41 (Burkitt lymphoma, suspension) | 0.927 | 9.81 µM | 0.992 | > 10 µM | 0.479 | 0.0111 µM
BT-20 (breast, adherent) | 0.982 | > 10.2 µM | 0.98 | > 10 µM | 0.821 | 0.154 µM
BT-474 (breast, adherent) | 0.986 | > 10.2 µM | 0.986 | > 10 µM | 0.888 | > 0.2 µM
BT-483 (breast, adherent) | 0.977 | > 10.2 µM | 0.929 | > 10 µM | 0.753 | 0.134 µM
BV-173 (chronic myeloid leukaemia, suspension) | 0.924 | > 10.2 µM | 0.939 | > 10 µM | 0.512 | 0.0134 µM
Becker (glioma, adherent) | 0.984 | > 10.2 µM | 0.931 | > 10 µM | 0.695 | 0.0475 µM
C2BBe1 (large intestine, adherent) | 0.986 | > 10.2 µM | 0.933 | > 10 µM | 0.837 | 0.161 µM
C3A (liver, adherent) | 0.988 | > 10.2 µM | 0.975 | > 10 µM | 0.981 | > 0.2 µM
C32 (melanoma, adherent) | 0.987 | > 10.2 µM | 0.975 | > 10 µM | 0.817 | 0.121 µM
C-4-I (cervix, adherent) | 0.986 | > 10.2 µM | 0.986 | > 10 µM | 0.857 | 0.186 µM
C-33-A (cervix, adherent) | 0.979 | > 10.2 µM | 0.982 | > 10 µM | 0.675 | 0.0385 µM
CA46 (Burkitt lymphoma, suspension) | 0.942 | > 10.2 µM | 0.984 | > 10 µM | 0.893 | > 0.2 µM
CADO-ES1 (Ewing sarcoma, suspension) | 0.963 | > 10.2 µM | 0.972 | > 10 µM | 0.942 | > 0.2 µM
CAL-12T (non-small cell lung carcinoma, adherent) | 0.953 | > 10.2 µM | 0.974 | > 10 µM | 0.778 | 0.0911 µM
CAL-27 (head and neck, adherent) | 0.986 | > 10.2 µM | 0.986 | > 10 µM | 0.759 | 0.0713 µM
CAL-29 (bladder, adherent) | 0.985 | > 10.2 µM | 0.97 | > 10 µM | 0.405 | 0.00671 µM
CAL-33 (head and neck, adherent) | 0.982 | > 10.2 µM | 0.974 | > 10 µM | 0.402 | 0.00674 µM
CAL-39 (cervix, adherent) | 0.986 | > 10.2 µM | 0.984 | > 10 µM | 0.628 | 0.0286 µM

Cell Line | AUC (XMD15-27) | IC50 (XMD15-27) | AUC (SL 0101-1) | IC50 (SL 0101-1) | AUC (Temsirolimus) | IC50 (Temsirolimus)
CAL-51 (breast, adherent) | 0.991 | > 10.2 µM | 0.938 | > 10 µM | 0.896 | 0.189 µM
CAL-72 (osteosarcoma, adherent) | 0.984 | > 10.2 µM | 0.886 | > 10 µM | 0.529 | 0.0152 µM
CAL-78 (chondrosarcoma, adherent) | 0.986 | > 10.2 µM | 0.986 | > 10 µM | 0.892 | > 0.2 µM
CAL-85-1 (breast, adherent) | 0.959 | > 10.2 µM | 0.966 | > 10 µM | 0.964 | > 0.2 µM
CAL-120 (breast, adherent) | 0.957 | > 10.2 µM | 0.933 | > 10 µM | 0.9 | > 0.2 µM
CAPAN-1 (pancreas, adherent) | 0.983 | > 10.2 µM | 0.987 | > 10 µM | 0.915 | > 0.2 µM
CAS-1 (glioma, adherent) | 0.982 | > 10.2 µM | 0.979 | > 10 µM | 0.86 | > 0.2 µM
CCF-STTG1 (glioma, adherent) | 0.988 | > 10.2 µM | 0.988 | > 10 µM | 0.882 | > 0.2 µM
CCK-81 (large intestine, adherent) | 0.99 | > 10.2 µM | 0.99 | > 10 µM | 0.99 | > 0.2 µM
CCRF-CEM (lymphoblastic leukaemia, suspension) | 0.976 | > 10.2 µM | 0.954 | > 10 µM | 0.156 | 0.00142 µM
CESS (acute myeloid leukaemia, suspension) | 0.921 | > 10.2 µM | 0.991 | > 10 µM | 0.946 | > 0.2 µM
CGTH-W-1 (thyroid, adherent) | 0.974 | > 10.2 µM | 0.981 | > 10 µM | 0.332 | 0.00428 µM
CHL-1 (melanoma, adherent) | 0.977 | > 10.2 µM | 0.913 | > 10 µM | 0.389 | 0.00629 µM
CHP-126 (neuroblastoma, suspension) | 0.971 | > 10.2 µM | 0.987 | > 10 µM | 0.908 | > 0.2 µM
CHP-212 (neuroblastoma, adherent) | 0.968 | > 10.2 µM | 0.977 | > 10 µM | 0.614 | 0.025 µM
CHSA0108 (chondrosarcoma, adherent) | 0.975 | > 10.2 µM | 0.983 | > 10 µM | 0.801 | 0.115 µM
CHSA8926 (chondrosarcoma, adherent) | 0.98 | > 10.2 µM | 0.98 | > 10 µM | 0.874 | > 0.2 µM
CL-11 (large intestine, adherent) | 0.986 | > 10.2 µM | 0.981 | > 10 µM | 0.969 | > 0.2 µM
